Experimental data: paper PMC4336329 (PLoS ONE, 2015)
Screen size: about 310,000 compounds; about 14,000 (4.5%) showed an effect of 50% or more. The effect is printed as a negative number. The list shows a part of the results.

What follows are molecules tested against human ether-à-go-go-related gene (hERG) potassium channel (human, UniProt Q12809) (assay: primary screen, population patch clamp on CHO cells stably expressing hERG).
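Note: peak tail current of the secondary pulse compared with the same well before compound.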

Sequence of human ether-à-go-go-related gene (hERG) potassium channel (Q12809 whole entry, looked up): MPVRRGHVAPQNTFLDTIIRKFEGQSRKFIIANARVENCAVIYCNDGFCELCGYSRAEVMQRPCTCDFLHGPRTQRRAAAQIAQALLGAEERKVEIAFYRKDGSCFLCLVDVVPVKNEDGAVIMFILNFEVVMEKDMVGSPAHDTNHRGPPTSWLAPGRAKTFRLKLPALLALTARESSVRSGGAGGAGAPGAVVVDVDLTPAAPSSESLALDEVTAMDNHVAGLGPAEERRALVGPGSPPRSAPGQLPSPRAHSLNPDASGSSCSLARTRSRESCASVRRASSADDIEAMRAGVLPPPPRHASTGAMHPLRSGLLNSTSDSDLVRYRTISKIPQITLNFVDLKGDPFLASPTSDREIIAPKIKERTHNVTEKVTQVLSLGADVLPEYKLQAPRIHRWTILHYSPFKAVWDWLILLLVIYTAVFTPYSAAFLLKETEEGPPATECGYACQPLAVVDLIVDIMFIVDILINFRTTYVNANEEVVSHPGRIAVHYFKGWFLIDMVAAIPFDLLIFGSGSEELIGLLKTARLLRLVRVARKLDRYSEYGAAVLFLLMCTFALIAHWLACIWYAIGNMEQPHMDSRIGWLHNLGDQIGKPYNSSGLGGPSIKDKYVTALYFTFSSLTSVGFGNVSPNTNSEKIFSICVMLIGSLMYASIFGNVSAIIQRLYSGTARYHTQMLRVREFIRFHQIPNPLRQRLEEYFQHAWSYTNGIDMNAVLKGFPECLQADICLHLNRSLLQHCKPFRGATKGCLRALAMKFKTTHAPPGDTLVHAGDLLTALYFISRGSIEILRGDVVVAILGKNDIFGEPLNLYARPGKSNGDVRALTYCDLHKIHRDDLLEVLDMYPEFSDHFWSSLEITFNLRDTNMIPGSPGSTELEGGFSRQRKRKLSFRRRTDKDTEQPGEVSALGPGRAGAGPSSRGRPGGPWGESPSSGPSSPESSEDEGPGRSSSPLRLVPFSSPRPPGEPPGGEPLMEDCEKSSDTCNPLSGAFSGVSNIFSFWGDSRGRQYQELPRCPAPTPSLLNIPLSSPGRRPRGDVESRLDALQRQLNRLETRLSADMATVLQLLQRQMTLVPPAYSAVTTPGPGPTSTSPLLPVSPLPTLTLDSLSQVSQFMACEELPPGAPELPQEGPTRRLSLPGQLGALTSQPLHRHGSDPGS

Compound	hERG current change (%, negative = inhibition) at 10uM [%]
Br.CCN(CC)S(=O)(=O)c1cccc(C(=O)NN2Cc3ccccc3C2=N)c1	-4.76
CCOc1ccc(-n2c(SCC(=O)Nc3ccccc3CC)nc3n[nH]c(C)c3c2=N)cc1	-22.5
Cc1cccc(N(C(=O)c2sc(C)nc2C)C(C(=O)NCC2CCCO2)c2ccccc2)c1 (stereo not drawn)	1.39
COc1ccc(C)cc1NC(=O)CCCN1C(=O)C(c2ccccc2)Oc2cccnc21 (stereo not drawn)	2.21
COc1ccc(OC)c(S(=O)(=O)N2CCCC(C(=O)NCCc3ccccc3)C2)c1 (stereo not drawn)	-38.2
Cc1ccc(NC(=O)COC(=O)CN2C(=O)c3ccccc3C2=O)cc1	-7.65
Clc1ccc(C2[C@H]3CN(Cc4cccnc4)[C@H](c4ccccc4)C34CC2(c2ccccc2)C4)cn1 (stereo partly drawn)	10.2
C=CCn1c(=O)c2ccccc2n2c(SCC(=O)NC)nnc12	-1.24
CCOC(=O)N1CCN(C(=O)CCc2nc3sc4c(c3c(=O)[nH]2)CCCC4)CC1	-0.935
COCC1CCCN(C(=O)c2ccc3oc(C(C)C)nc3c2)C1 (stereo not drawn)	-1.99
O=C(C(=O)N1CCOCC1)c1cn(Cc2ccccc2Cl)c2ccccc12	-1.64
COc1cc(-c2cc(C(=O)N3CCN(c4ccccn4)CC3)c3ccccc3n2)cc(OC)c1OC	-31.5
CNC(=O)CSc1nnc(-c2ccco2)n1-c1cccc(C)c1	-4.75
CC1(C)CC(NC(=O)c2ccc(Cl)c(Cl)c2)CC(C)(C)N1	-15.2
Oc1ccc(/C=N/n2c(-c3ccccc3)n[nH]c2=S)cc1Br	-6.71
CCC(C)NC(=O)CNC(=O)Cn1c(C)cc2ccccc2c1=O (stereo not drawn)	8.18
COc1ccccc1NC(=O)c1cccs1	-16.6
COCCn1c(SCC(=O)c2c(N)n(C)c(=O)n(C)c2=O)nc2ccccc21	16.2
CC12CCC(C(N)=O)(c3nc4ccccc4nc31)C2(C)C (stereo not drawn)	-4.08
CC(=O)c1ccc(Nc2ccc([N+](=O)[O-])c3nonc23)cc1	10.3
CC(C)(C)OC(=O)N1CCC(c2c(C(=O)NCC3CCN(C4CCCC4)C3)cnn2-c2ccccc2)CC1 (stereo not drawn)	-35.8
COc1cc(C(=O)NNC(=O)Cc2ccc(S(=O)(=O)N3CCOCC3)s2)cc(OC)c1OC	14.4

Compound	hERG current change (%, negative = inhibition) at 10uM [%]
CCOC(=O)c1cc(OC(=O)c2cccnc2)n(-c2ccccc2)n1	-10.9
Cc1ccc(S(=O)(=O)N(C)C)cc1NC(=O)[C@H](Cc1ccccc1)N1C(=O)c2ccccc2C1=O	1.36
Cc1ccc(NC(=O)c2ccc3c(=O)n4c(nc3c2)CCC4)cc1F	-9.1
COCCn1nnnc1C(c1cccc(C(F)(F)F)c1)N1CCN(Cc2ccccc2)CC1.Cl (stereo not drawn)	-15.8
CCOc1ccc(NC(=O)CCC(=O)c2ccc(Br)cc2)cc1	15
O=C1CC(c2ccco2)CC(O)=C1C=NCCO (stereo not drawn)	7.61
Cc1cccc(-c2nc(Nc3ccc(N4CCOCC4)cc3)c3ccccc3n2)c1	1.55
COc1ccc2[nH]cc(CCNS(=O)(=O)c3ccccc3)c2c1	11.7
CCOC(=O)C1C(=O)CC(C)(O)C(C(=O)OCC)C1c1ccccc1OC (stereo not drawn)	2.84
CCN1CCCC1CNC(=O)C1c2cc(OC)c(OC)cc2C(=O)N(C)C1c1cccnc1 (stereo not drawn)	2.02
CSCCC(N=Cc1c(O)n(-c2ccc(F)cc2)c(=O)[nH]c1=O)C(=O)OC(C)(C)C (stereo not drawn)	-8.26
Cc1ccc(CNS(=O)(=O)c2c(C)n(C)c(=O)n(C)c2=O)cc1	3.08
CCCN1CCC(NC2CCC(O)CC2)CC1 (stereo not drawn)	2.14
Cc1cccc(C)c1NC(=O)CN(C)CC(=O)Nc1ccccc1Oc1ccccc1	11.3
CCc1nnc(NS(=O)(=O)c2ccccc2)s1	14.9
COc1ccccc1N1CCN(CC(=O)c2c(C)[nH]c3ccccc23)CC1	-38.6
Cc1ccc(S(=O)(=O)N(C)C)cc1NC(=O)Nc1c(-c2ccccc2)noc1C	6.72
COc1cccc(CNC(=O)CCNC(=O)c2ccco2)c1	5.96
CCn1c(C2CCN(Cc3ccccc3)CC2)n[nH]c1=S	-17.3
Cc1cc(NC2CCCC2)n2ncc(-c3ccccc3)c2n1	2.74
COc1cccc2c(O)c(-c3ccccc3)c(=O)[nH]c12	16.9
Cc1c(C#N)c2ncn(CCCN(C)C)c(=O)c2n1-c1ccccc1	-6.21

Compound	hERG current change (%, negative = inhibition) at 10uM [%]
Cn1nc(C(=O)N2CCCc3ccccc32)c2ccccc2c1=O	1.7
COc1ccc(NC(=O)C2CCCN(c3c4c(nc5ncnn35)CCC4)C2)cc1 (stereo not drawn)	-61.6
COc1ccc(-n2cccc2/C=C/[N+](=O)[O-])cc1	-50.4
CN(C)c1ccc(CN(C(=O)c2ccco2)C2CCS(=O)(=O)C2)cc1 (stereo not drawn)	-10.6
Cc1cc(NC(=O)CSc2nnc(-c3ccccc3)o2)no1	2.11
CCC(=O)N1c2ccc(S(=O)(=O)CCC(=O)NCc3cccs3)cc2CC1C (stereo not drawn)	-9.7
CC(=O)Nc1ccc(N2C(=O)C3C4CC(=O)C(c5ccccc54)C3C2=O)cc1 (stereo not drawn)	7.32
COc1cccc(CCC(=O)Nc2cccc(S(=O)(=O)N3CCCC3)c2)c1OC	-18.1
COc1ccc(N=Cc2c(OC)ccc3ccccc23)cc1	1.93
COCCN(C(=S)Nc1ccccc1C)C(C)c1ccco1 (stereo not drawn)	-5.21
Cc1ccc(C(=O)OCc2nnc(-c3ccc(Br)cc3)o2)cc1	-11.8
O=C(Nc1nnc(S(=O)(=O)N2CCCCC2)s1)c1ccc(Cl)cc1	3.15
O=C(NCc1ccc(F)cc1)c1ccccc1OCc1ccccc1	-8.06
CCOC(=O)C1CCCCN1Cc1cccc(C(F)(F)F)c1 (stereo not drawn)	6.43
Cc1cccn2c(=O)c3cc(C(=O)NCc4ccco4)c(=N)n(C4CCCCC4)c3nc12	-77.4
O=Cc1cn(CC(=O)Nc2ccc3c(c2)OCO3)c2ccccc12	15.8
CC(C)(C)N(NC(=O)Nc1ccc(Cl)c(Cl)c1)C(=O)c1ccccc1	5.65
COc1cccc(NC(=O)CCc2c(C)nn(-c3ccc(N4CCOCC4)nn3)c2C)c1	6.65
Cc1c(N2C(=O)/C(=C3\C(=O)N(CC(=O)O)c4ccccc43)SC2=S)c(=O)n(-c2ccccc2)n1C	10.3
COc1ccc(OCC(O)CN2CCN(c3ccc(Cl)cc3)CC2)cc1 (stereo not drawn)	-30.7
O=C(Cc1c(Cl)cccc1Cl)N1CCN(S(=O)(=O)c2cccs2)CC1	10.9
O=C(Nc1ccc2nc3n(c(=O)c2c1)CCCCC3)c1c(F)ccc([N+](=O)[O-])c1F	-13.9

Compound	hERG current change (%, negative = inhibition) at 10uM [%]
Cc1ccc(C(=O)c2oc3ccccc3c2NC(=O)c2cc(-c3ccccc3O)n[nH]2)cc1	11.8
CCOc1ccc2nc(N=Nc3c(O)[nH]c(=S)[nH]c3=O)sc2c1	25.1
COc1ccccc1CCN1CCCC(CN(C)C(=O)c2ccc3nc[nH]c3c2)C1 (stereo not drawn)	12.1
COC(=O)Nc1nnc(-c2ccc(OC)cc2)s1	-2.67
O=C(CN1CCCCC1)Nc1cc(Cl)ccc1Oc1ccccc1	12.5
CCOC(=O)C1(S(=O)(=O)c2ccccc2)CCN(Cc2ccccc2)CC1	-25.3
CCOC(=O)c1ccc(NC(=O)Cn2nnc(-c3ccccc3)n2)cc1	-10.6
COc1ccc(C2NCCc3c2[nH]c2ccccc32)cc1COc1ccc(F)cc1.Cl (stereo not drawn)	-45.5
C=CCn1c(O)c(/C=C2\C=NN=C2c2ccccc2)sc1=S	-0.284
Cc1noc(C)c1COc1cccc(C(=O)NCc2cccc(Cl)c2)c1	-9.21
Cc1ccoc1C(=O)NCCNC(=O)c1occc1C	4.85
Cc1ccc(NC(=O)CSC2=C(C#N)C(c3ccco3)C3=C(CCCC3=O)N2)cc1 (stereo not drawn)	0.131
CC(C)=CCCC1=CCC(/C=N/NC(N)=O)C(C)C1 (stereo not drawn)	9
COC(=O)CSc1nnc(-c2ccoc2C)n1-c1ccc(OC)cc1	-18.3
CCOC(=O)Nc1c(C(=O)OC)[nH]c2cc(OC)ccc12	-4.22
CC(C)COc1ccccc1C(=O)NC(CO)C(=O)O (stereo not drawn)	16
CCN(CC)C(=O)c1c(-c2ccccc2)oc2ccc(OC)cc12	-25
CCN(C(=O)c1cc2cc(OC)ccc2oc1=O)c1ccccc1	7.35
C[C@]1(C(=O)NCCN2CCOCC2)C=C[C@@H](Cc2ccccc2)N1C(=O)c1ccccc1	5.92
CC1=NNC(=O)C1CC(=O)N/N=C/C(C)=C/c1ccccc1 (stereo not drawn)	15.3
COc1cc(Cl)cc(C=O)c1OCC(=O)O	18.7
